The text below walks through data of the supplement of paper PMC4604168 (melanoma cell lines).

This is one part of the list. Most values come without repeats; read them as rough.
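Note: cells treated in 1,536-well plates, then fixed and DAPI-stained, with nuclei counted from automated high-throughput microscope images.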

For the test, the system named is A2058. The test can be described thus: cell count relative to DMSO control; melanoma cells; higher = more viable cells. To be noted: library dose: standard library concentration; 72 h.
In turn, `Cn1nnc2c(C(N)=O)ncn2c1=O` [temozolomide] + O=C(CCCCCCC(=O)Nc1ccccc1)NO [vorinostat] (first compound 10 µM, partner dose 0.4 µM) returned a cell count of 35.8%.

For the compound `Cn1nnc2c(C(N)=O)ncn2c1=O` [temozolomide] + NC(=O)Nc1cc(-c2cccc(F)c2)sc1C(=O)N[C@H]1CCCNC1 [AZD7762] (first compound 10 µM, partner dose 0.1 µM), the cell count was 17.2%.

`O=C(O)c1ccc2c(c1)nc(Nc1cccc(Cl)c1)c1ccncc12` + Nc1cccc2c1CN(C1CCC(=O)NC1=O)C2=O [lenalidomide] (first compound 2 µM, partner dose 5 µM): the cell count was found to be 87%.

The compound `O=C(Nc1cc(C(F)(F)F)cc(C(F)(F)F)c1)c1cc(Cl)ccc1O` + Cc1cc(Nc2cc(N3CCN(C)CC3)nc(/C=C/c3ccccc3)n2)n[nH]1 [ENMD2076] (first compound 0.08 µM, partner dose 0.2 µM) gave a cell count of 89.5%.

Regarding `O=C(O)[C@@H]1[O][Sb](=[O])([O][Sb]2(=[O])[O][C@H]([C@H](O)CO)[C@H](O)[C@H](C(=O)O)[O]2)[O][C@H]([C@H](O)CO)[C@@H]1O` (stereo partly specified) [stibogluconate] + CS(=O)(=O)CCNCc1ccc(-c2ccc3ncnc(Nc4ccc(OCc5cccc(F)c5)c(Cl)c4)c3c2)o1 [lapatinib] (first compound 10 µM, partner dose 4 µM), the cell count came to 69.9%.

`Cn1nnc2c(C(N)=O)ncn2c1=O` [temozolomide] + C[C@@H]1CCN(C(=O)CC#N)C[C@@H]1N(C)c1ncnc2[nH]ccc12 [CP690550] (first compound 10 µM, partner dose 5 µM) registered a cell count of 45%.

The compound `O=C(Nc1cc(C(F)(F)F)cc(C(F)(F)F)c1)c1cc(Cl)ccc1O` + NCC(=O)Nc1ccc(-n2nc(C(F)(F)F)cc2-c2ccc3c(ccc4ccccc43)c2)cc1 [OSU03012] (first compound 0.08 µM, partner dose 5 µM) yielded a cell count of 78.3%.

In turn, `O=C(Nc1cc(C(F)(F)F)cc(C(F)(F)F)c1)c1cc(Cl)ccc1O` + Cc1nc(Nc2ncc(C(=O)Nc3c(C)cccc3Cl)s2)cc(N2CCN(CCO)CC2)n1 [dasatanib] (first compound 0.08 µM, partner dose 0.02 µM) gave a cell count of 70.1%.

For the compound `O=C(Nc1cc(C(F)(F)F)cc(C(F)(F)F)c1)c1cc(Cl)ccc1O` + COc1ccc(Cl)c(Nc2nc3ccccc3nc2NS(=O)(=O)c2cccc(NC(=O)C(C)(C)N)c2)c1 [XL147] (first compound 0.08 µM, partner dose 4 µM), the cell count came to 85.6%.

With `Cc1cc(N2CCOCC2)cc2[nH]c(-c3c(NC[C@@H](O)c4cccc(Cl)c4)cc[nH]c3=O)nc12` + C[C@@H]1CCN(C(=O)CC#N)C[C@@H]1N(C)c1ncnc2[nH]ccc12 [CP690550] (first compound 1 µM, partner dose 5 µM), the cell count turned out to be 107%.

In the case of `O=C(Nc1cc(C(F)(F)F)cc(C(F)(F)F)c1)c1cc(Cl)ccc1O` + O=C(CCCCCCC(=O)Nc1ccccc1)NO [vorinostat] (first compound 0.08 µM, partner dose 0.4 µM), the cell count stood at 84.2%.

As for `O=C(O)[C@@H]1[O][Sb](=[O])([O][Sb]2(=[O])[O][C@H]([C@H](O)CO)[C@H](O)[C@H](C(=O)O)[O]2)[O][C@H]([C@H](O)CO)[C@@H]1O` (stereo partly specified) [stibogluconate] + Cc1nc(Nc2ncc(C(=O)Nc3c(C)cccc3Cl)s2)cc(N2CCN(CCO)CC2)n1 [dasatanib] (first compound 10 µM, partner dose 0.02 µM), the cell count worked out at 73.7%.

`O=C(O)[C@@H]1[O][Sb](=[O])([O][Sb]2(=[O])[O][C@H]([C@H](O)CO)[C@H](O)[C@H](C(=O)O)[O]2)[O][C@H]([C@H](O)CO)[C@@H]1O` (stereo partly specified) [stibogluconate] + Nc1ccn([C@@H]2O[C@H](CO)[C@@H](O)C2(F)F)c(=O)n1 [gemcitabine] (first compound 10 µM, partner dose 0.002 µM) registered a cell count of 43.5%.

The compound `O=C(Nc1cc(C(F)(F)F)cc(C(F)(F)F)c1)c1cc(Cl)ccc1O` + Cc1cc(N2CCOCC2)cc2[nH]c(-c3c(NC[C@@H](O)c4cccc(Cl)c4)cc[nH]c3=O)nc12 [BMS536924] (first compound 0.08 µM, partner dose 1 µM) yielded a cell count of 81.2%.

In turn, `O=C(O)[C@@H]1[O][Sb](=[O])([O][Sb]2(=[O])[O][C@H]([C@H](O)CO)[C@H](O)[C@H](C(=O)O)[O]2)[O][C@H]([C@H](O)CO)[C@@H]1O` (stereo partly specified) [stibogluconate] + O=S(=O)(c1ccccc1)N(CC(F)(F)F)c1ccc(C(O)(C(F)(F)F)C(F)(F)F)cc1 [T0901317] (first compound 10 µM, partner dose 7 µM) showed a cell count of 86.9%.

In turn, `O=C(O)c1ccc2c(c1)nc(Nc1cccc(Cl)c1)c1ccncc12` + C[C@]1(c2nc3c(C(N)=O)cccc3[nH]2)CCCN1 [Veliparib] (first compound 2 µM, partner dose 7 µM) returned a cell count of 67.5%.

`O=C(O)c1ccc2c(c1)nc(Nc1cccc(Cl)c1)c1ccncc12` + O=C(O)c1ccc(-c2c[nH]c3ncc(-c4ccccc4)cc23)cc1C1CCCC1 [GSK650394] (first compound 2 µM, partner dose 0.8 µM): the cell count is 87%.

For `O=C(Nc1cc(C(F)(F)F)cc(C(F)(F)F)c1)c1cc(Cl)ccc1O` + CCCCCCCCc1ccc(CCC(N)(CO)CO)cc1 [fingolimod] (first compound 0.08 µM, partner dose 10 µM), the cell count is 9.46%.

Compound `O=C(Nc1cc(C(F)(F)F)cc(C(F)(F)F)c1)c1cc(Cl)ccc1O` + C=C(c1ccc(C(=O)O)cc1)c1cc2c(cc1C)C(C)(C)CCC2(C)C [Bexarotene] (first compound 0.08 µM, partner dose 10 µM) gave a cell count of 109%.

`O=C(Nc1cc(C(F)(F)F)cc(C(F)(F)F)c1)c1cc(Cl)ccc1O` + CC(C)C[C@H](NC(=O)[C@H](Cc1ccccc1)NC(=O)c1cnccn1)B(O)O [Bortezomib] (first compound 0.08 µM, partner dose 0.005 µM) came in with a cell count of 16%.

In the case of `O=C(O)[C@@H]1[O][Sb](=[O])([O][Sb]2(=[O])[O][C@H]([C@H](O)CO)[C@H](O)[C@H](C(=O)O)[O]2)[O][C@H]([C@H](O)CO)[C@@H]1O` (stereo partly specified) [stibogluconate] + COc1cc2c(Oc3ccc4[nH]c(C)cc4c3F)ncnc2cc1OCCCN1CCCC1 [cediranib] (first compound 10 µM, partner dose 2 µM), the cell count stood at 84.7%.

In turn, `O=C(Nc1cc(C(F)(F)F)cc(C(F)(F)F)c1)c1cc(Cl)ccc1O` + CC1(C)NC(=O)N(c2ccc([N+](=O)[O-])c(C(F)(F)F)c2)C1=O [nilutamide] (first compound 0.08 µM, partner dose 5 µM) displayed a cell count of 79.6%.

On to `O=C(Nc1cc(C(F)(F)F)cc(C(F)(F)F)c1)c1cc(Cl)ccc1O` + C[C@]1(O)C[C@@H](c2nc(-c3ccc4ccc(-c5ccccc5)nc4c3)c3c(N)nccn32)C1 [OSI906] (first compound 0.08 µM, partner dose 2 µM), for which the cell count was 104%.

The compound `Cn1nnc2c(C(N)=O)ncn2c1=O` [temozolomide] + CC1(C)NC(=O)N(c2ccc([N+](=O)[O-])c(C(F)(F)F)c2)C1=O [nilutamide] (first compound 10 µM, partner dose 5 µM) displayed a cell count of 43.3%.

In turn, `O=C(O)[C@@H]1[O][Sb](=[O])([O][Sb]2(=[O])[O][C@H]([C@H](O)CO)[C@H](O)[C@H](C(=O)O)[O]2)[O][C@H]([C@H](O)CO)[C@@H]1O` (stereo partly specified) [stibogluconate] + COc1cc2ncnc(Nc3ccc(Oc4ccccc4)cc3)c2cc1OC [SrcI1] (first compound 10 µM, partner dose 10 µM) yielded a cell count of 81.2%.

In turn, `O=C(Nc1cc(C(F)(F)F)cc(C(F)(F)F)c1)c1cc(Cl)ccc1O` + CN1CCN(c2ccc3nc(-c4c(N)c5c(F)cccc5[nH]c4=O)[nH]c3c2)CC1 [Dovitinib] (first compound 0.08 µM, partner dose 0.5 µM) had a cell count of 36.4%.

`O=C(O)[C@@H]1[O][Sb](=[O])([O][Sb]2(=[O])[O][C@H]([C@H](O)CO)[C@H](O)[C@H](C(=O)O)[O]2)[O][C@H]([C@H](O)CO)[C@@H]1O` (stereo partly specified) [stibogluconate] + Cc1ccc(NC(=O)c2cccc(N(C)C)c2)cc1NC(=O)c1ccc(O)cc1 [ZM336372] (first compound 10 µM, partner dose 10 µM): the cell count came to 104%.

On to `O=C(O)c1ccc2c(c1)nc(Nc1cccc(Cl)c1)c1ccncc12` + C#Cc1cccc(Nc2ncnc3cc(OCCOC)c(OCCOC)cc23)c1 [erlotinib] (first compound 2 µM, partner dose 4 µM), for which the cell count was determined as 79%.

In the case of `Cc1cc(N2CCOCC2)cc2[nH]c(-c3c(NC[C@@H](O)c4cccc(Cl)c4)cc[nH]c3=O)nc12` + CN(C)S(=O)(=O)c1ccc2c(c1)/C(=C/c1cc3c([nH]1)CCCC3)C(=O)N2 [SU6656] (first compound 1 µM, partner dose 2 µM), the cell count is 64%.

`O=C(Nc1cc(C(F)(F)F)cc(C(F)(F)F)c1)c1cc(Cl)ccc1O` + C[C@@H](N)c1ccc(C(=O)Nc2ccnc3[nH]ccc23)cc1 [RKI983] (first compound 0.08 µM, partner dose 2 µM) displayed a cell count of 77.3%.

In turn, `O=C(O)[C@@H]1[O][Sb](=[O])([O][Sb]2(=[O])[O][C@H]([C@H](O)CO)[C@H](O)[C@H](C(=O)O)[O]2)[O][C@H]([C@H](O)CO)[C@@H]1O` (stereo partly specified) [stibogluconate] + CC(=O)c1c(C)c2cnc(Nc3ccc(N4CCNCC4)cn3)nc2n(C2CCCC2)c1=O [palbociclib] (first compound 10 µM, partner dose 0.2 µM) registered a cell count of 90.2%.
